Experimental data: paper PMC4686657
These are yes or no findings as the source states them, for the method shown. In cells and extracts the contact can be indirect. Some results given as binding are weak or reduced against the parent protein; the word gives no strength.

The chains behind the UniProt entries cited, without tags or fusion partners.
UniProt P60122: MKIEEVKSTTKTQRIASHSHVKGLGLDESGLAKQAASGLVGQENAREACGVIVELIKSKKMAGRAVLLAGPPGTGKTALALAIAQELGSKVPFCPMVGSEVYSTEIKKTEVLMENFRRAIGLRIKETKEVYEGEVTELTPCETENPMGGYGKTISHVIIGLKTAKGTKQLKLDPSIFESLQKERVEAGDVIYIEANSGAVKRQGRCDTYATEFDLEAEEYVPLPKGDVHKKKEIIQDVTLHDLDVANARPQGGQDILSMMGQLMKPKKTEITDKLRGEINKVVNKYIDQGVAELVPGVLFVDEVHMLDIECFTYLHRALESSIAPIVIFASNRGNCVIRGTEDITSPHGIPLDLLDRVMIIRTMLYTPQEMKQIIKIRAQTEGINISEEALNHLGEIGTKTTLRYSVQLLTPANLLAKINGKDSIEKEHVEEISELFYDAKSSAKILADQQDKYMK
UniProt Q9WTM5: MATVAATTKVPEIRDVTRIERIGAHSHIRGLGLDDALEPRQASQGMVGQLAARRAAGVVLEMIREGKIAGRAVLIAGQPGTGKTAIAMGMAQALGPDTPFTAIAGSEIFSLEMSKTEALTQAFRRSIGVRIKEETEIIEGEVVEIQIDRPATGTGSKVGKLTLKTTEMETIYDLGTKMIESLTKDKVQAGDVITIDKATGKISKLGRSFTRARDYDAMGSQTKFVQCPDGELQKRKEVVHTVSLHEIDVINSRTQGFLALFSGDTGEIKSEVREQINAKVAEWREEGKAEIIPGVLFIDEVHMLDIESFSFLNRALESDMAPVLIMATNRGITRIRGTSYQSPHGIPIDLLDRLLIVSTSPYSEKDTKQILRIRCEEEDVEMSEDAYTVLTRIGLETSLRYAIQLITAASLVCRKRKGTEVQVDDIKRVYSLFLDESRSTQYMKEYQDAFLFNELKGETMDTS
UniProt Q61501: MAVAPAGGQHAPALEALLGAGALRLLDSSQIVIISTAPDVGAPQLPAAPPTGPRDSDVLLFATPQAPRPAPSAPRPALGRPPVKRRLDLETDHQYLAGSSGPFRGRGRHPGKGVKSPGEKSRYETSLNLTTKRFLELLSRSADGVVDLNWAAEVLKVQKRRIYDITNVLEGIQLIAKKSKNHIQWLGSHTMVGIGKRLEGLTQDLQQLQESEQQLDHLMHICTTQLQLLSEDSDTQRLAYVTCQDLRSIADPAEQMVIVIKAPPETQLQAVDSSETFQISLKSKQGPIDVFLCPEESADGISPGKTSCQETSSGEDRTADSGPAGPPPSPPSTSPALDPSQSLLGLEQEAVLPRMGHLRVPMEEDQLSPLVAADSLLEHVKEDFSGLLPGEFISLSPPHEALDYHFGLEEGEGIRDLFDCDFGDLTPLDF
UniProt O35261: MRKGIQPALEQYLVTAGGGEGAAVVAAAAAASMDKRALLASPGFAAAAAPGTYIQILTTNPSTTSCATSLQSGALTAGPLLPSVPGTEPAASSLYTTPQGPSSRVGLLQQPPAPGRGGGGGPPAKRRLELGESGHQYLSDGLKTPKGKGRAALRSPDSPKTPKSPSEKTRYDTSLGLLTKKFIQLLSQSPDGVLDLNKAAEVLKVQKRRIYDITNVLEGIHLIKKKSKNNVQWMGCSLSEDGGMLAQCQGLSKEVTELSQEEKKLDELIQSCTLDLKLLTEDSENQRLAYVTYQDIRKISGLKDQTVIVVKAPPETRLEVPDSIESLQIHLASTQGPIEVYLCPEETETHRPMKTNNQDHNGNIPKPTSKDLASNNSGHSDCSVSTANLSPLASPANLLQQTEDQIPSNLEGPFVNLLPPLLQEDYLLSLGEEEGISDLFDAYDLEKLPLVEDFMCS
UniProt Q01094: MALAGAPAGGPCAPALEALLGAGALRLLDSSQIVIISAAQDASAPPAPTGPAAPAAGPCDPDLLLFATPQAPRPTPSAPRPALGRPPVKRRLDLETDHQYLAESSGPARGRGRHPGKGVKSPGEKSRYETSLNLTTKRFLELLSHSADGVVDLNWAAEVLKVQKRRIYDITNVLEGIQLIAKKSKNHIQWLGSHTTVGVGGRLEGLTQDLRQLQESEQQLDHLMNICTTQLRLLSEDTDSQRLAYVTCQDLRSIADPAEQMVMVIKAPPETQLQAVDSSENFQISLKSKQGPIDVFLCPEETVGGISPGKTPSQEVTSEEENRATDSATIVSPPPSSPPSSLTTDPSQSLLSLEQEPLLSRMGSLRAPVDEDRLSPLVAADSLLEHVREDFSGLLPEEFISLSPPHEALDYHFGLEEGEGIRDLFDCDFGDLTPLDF
UniProt P56931: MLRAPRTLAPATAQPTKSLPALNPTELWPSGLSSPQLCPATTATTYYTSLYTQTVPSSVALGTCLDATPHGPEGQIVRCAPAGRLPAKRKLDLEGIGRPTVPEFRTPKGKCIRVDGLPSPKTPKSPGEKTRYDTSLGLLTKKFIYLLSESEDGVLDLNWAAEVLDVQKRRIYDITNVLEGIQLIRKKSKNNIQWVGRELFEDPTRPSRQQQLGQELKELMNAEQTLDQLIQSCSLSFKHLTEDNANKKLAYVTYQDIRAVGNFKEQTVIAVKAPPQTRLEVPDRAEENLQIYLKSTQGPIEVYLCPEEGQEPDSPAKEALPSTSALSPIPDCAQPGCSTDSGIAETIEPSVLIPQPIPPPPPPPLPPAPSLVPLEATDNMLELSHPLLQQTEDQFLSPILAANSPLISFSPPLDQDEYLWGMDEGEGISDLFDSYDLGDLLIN
UniProt P0C0S6: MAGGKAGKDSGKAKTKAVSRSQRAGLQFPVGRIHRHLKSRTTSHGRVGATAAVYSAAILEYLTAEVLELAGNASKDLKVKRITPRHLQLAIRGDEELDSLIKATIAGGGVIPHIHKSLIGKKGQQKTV

Legend:
[1] = target: Pontin (mouse (endogenous in TKO HCC cells)) (UniProt P60122); assay: co-IP; IP and reverse-IP of endogenous proteins (E2f1, E2f3, Reptin, Pontin; IgG or HA as control) from TKO HCC cell lysates, immunoblotting
[2] = target: Reptin (mouse (endogenous in TKO HCC cells)) (UniProt Q9WTM5); assay: as above
[3] = target: Reptin (mouse (endogenous in TKO HCC cells)) (UniProt Q9WTM5); assay: co-sedimentation; 100 μg nuclear extract of TKO HCC cells on a 20% Nycodenz gradient, ultracentrifugation, twenty fractions of 250 μl, immunoblotting
[4] = target: E2f1 (mouse (endogenous in TKO HCC cells)) (UniProt Q61501); assay: condition: only liver 4 days after Tamoxifen treatment (acute Rb family inactivation); co-IP; IP for HA, E2f1 and E2f3 in primary liver extracts of Rosa26-CreER^T2 TKO mice 4 days after Tamoxifen treatment (acute Rb family loss); Reptin and Pontin detected by immunoblotting
[5] = target: E2f1 (mouse (endogenous in TKO HCC cells)) (UniProt Q61501); assay: co-IP; IP for HA, E2f1 and E2f3 in primary TKO HCC liver extracts; Reptin and Pontin detected by immunoblotting
[6] = target: E2f1 (mouse (endogenous in TKO HCC cells)) (UniProt Q61501); assay: co-IP; IP and reverse-IP of endogenous proteins (E2f1, E2f3, Reptin, Pontin; IgG or HA as control) from TKO HCC cell lysates, immunoblotting
[7] = target: E2f3 (mouse (endogenous in TKO HCC cells)) (UniProt O35261); assay: as above
GST-E2f1 = GST-E2f1 (UniProt Q01094); assay: pull-down; GST-E2f1 fusion proteins bound to GST-sepharose beads incubated with 1 ml TKO cell lysate in TWB buffer for 1 h; washed five times with NENTM buffer; immunoblotting of endogenous protein; only the target purified
[8] = target: E2f1 (mouse (endogenous in TKO HCC cells)) (UniProt Q61501); assay: co-IP; endogenous E2f1 IP (antibody C-20) from TKO HCC cells, the pair challenged with increasing amounts of GST-E2f1-1-121; Reptin detected by immunoblotting

Substance	binding [1]	binding [2]	binding [3]	binding [4]	binding [5]	binding [6]	binding [7]	binding (GST-E2f1)	binding [8]
E2f2 (from UniProt P56931 1-443)	no binding	no binding	–	–	–	–	–	–	–
H2a.z (from UniProt P0C0S6 1-128)	–	binds	–	–	–	–	–	–	–
Pontin (from UniProt P60122 1-456)	–	binds	binds	no binding	binds	binds	no binding	no binding	–
Reptin (from UniProt Q9WTM5 1-463)	–	–	–	no binding	binds	binds	no binding	binds	binds
